Experimental findings from PMC11995724, “Antibiotic target discovery by integrated phenotypic and activity-based profiling of electrophilic fragments” (Cell chemical biology, 2025) are described below.

Hit rate of the full screen: of about 3,200 compounds, about 110 (3.4%) showed an effect of 50% or more. This is one part of the list.

The subject of this assay is T1, V. cholerae SAD30.
T1 construct: SAD30
Also noted: species or system S. aureus MSSA476 (TSB) or V. cholerae SAD30 (LB); 384-well bacterial growth screen at 25 uM, OD600 relative to DMSO control. To be noted: relative growth, OD600, LB; 25 µM; inhibitor.
For `CC(Cl)C(=O)N1C[C@@H]2CCC[C@@]2(c2nc(-c3cnccn3)no2)C1` (mixture of isomers) [7-C03, rac-1-[(3aR,6aR)-3a-[3-(pyrazin-2-yl)-1,2,4-oxadiazol-5-yl]-octahydrocyclopenta[c]pyrrol-2-yl]-2-chloropropan-1-one], the “% of control remaining” value was 101.239%. Turning to `CC(Cl)C(=O)N1C2CCC1CC(O)(Cc1ccc(F)cc1F)C2` (stereo not shown) [7-G18, 2-chloro-1-{3-[(2,4-difluorophenyl)methyl]-3-hydroxy-8-azabicyclo[3.2.1]octan-8-yl}propan-1-one], the “% of control remaining” value is on record as 71.8982%. Consider `O=C(CCl)c1ccc2c(c1)CCN(C(=O)C(F)(F)F)C2` [10-E09, 1-[6-(2-chloroacetyl)-1,2,3,4-tetrahydroisoquinolin-2-yl]-2,2,2-trifluoroethan-1-one], for which the “% of control remaining” value amounted to 98.6558%. On to `CC(Cc1ccc(Cl)s1)NC(=O)CCl` (stereo not shown) [5-N11, 2-chloro-N-[1-(5-chlorothiophen-2-yl)propan-2-yl]acetamide], for which the “% of control remaining” value was determined as 97.5097%.

In the case of `CC(C)c1cccc(C(C)C)c1NC(=O)CCl` [5-G13, N-[2,6-bis(propan-2-yl)phenyl]-2-chloroacetamide], the “% of control remaining” value is 96.501%.

Regarding `CC(Cl)C(=O)Nc1ccc2c(c1)OCCCO2` (stereo not shown) [4-K10, 2-chloro-N-(3,4-dihydro-2H-1,5-benzodioxepin-7-yl)propanamide], the “% of control remaining” value came to 96.6142%. As to `C=CC(=O)Nc1cc(S(=O)(=O)N2CCCCCC2)ccc1OC` [1-A15, N-[5-(azepane-1-sulfonyl)-2-methoxyphenyl]prop-2-enamide], the “% of control remaining” value turned out to be 83.707%. `CNC(=O)c1ccn(C2CCCN(C(=O)CCl)C2)n1` (stereo not shown) [5-I08, 1-[1-(2-chloroacetyl)piperidin-3-yl]-N-methyl-1H-pyrazole-3-carboxamide]: the “% of control remaining” value was 95.156%. For `COc1ccc(N(Cc2cccs2)C(=O)CCl)cc1` [5-O17, 2-chloro-N-(4-methoxyphenyl)-N-[(thiophen-2-yl)methyl]acetamide] the value was 96.501%; for `CC(Cl)C(=O)N1CCN(c2nnnn2-c2ccccc2)CC1` (stereo not shown) [7-I12, 2-chloro-1-[4-(1-phenyl-1H-1,2,3,4-tetrazol-5-yl)piperazin-1-yl]propan-1-one], 70.1801%. Turning to `C=CC(=O)N1CCc2nn(C(C)C)c(=O)cc2C1` [3-B22, 6-(prop-2-enoyl)-2-(propan-2-yl)-2H,3H,5H,6H,7H,8H-pyrido[4,3-c]pyridazin-3-one], the “% of control remaining” value was found to be 122.966%. In the case of `Cc1cc(C)c(NC(=O)C(C#N)=Cc2cc(F)ccc2F)c(C)c1` [8-A10, 2-cyano-3-(2,5-difluorophenyl)-N-(2,4,6-trimethylphenyl)prop-2-enamide] it was 85.1801%. As for `N#CC(=Cc1cc(C#N)cs1)C(=O)NC(N)=O` [8-F04, {2-cyano-2-[(4-cyanothiophen-2-yl)methylidene]acetyl}urea], the “% of control remaining” value was 78.7899%. As for `O=C(CCl)NCC(=O)Nc1nccs1` [5-G22, 2-chloro-N-{[(1,3-thiazol-2-yl)carbamoyl]methyl}acetamide], the “% of control remaining” value is on record as 111.632%. As for `C=CC(=O)N1CC[C@H](Oc2ccc(F)cc2)C1` [2-A15, 1-[(3S)-3-(4-fluorophenoxy)pyrrolidin-1-yl]prop-2-en-1-one], the “% of control remaining” value was 86.1816%. Turning to `COc1ccc(C=C(C#N)C(=O)Nc2ccccc2C(=O)O)cc1O` [9-A18, 2-[2-cyano-3-(3-hydroxy-4-methoxyphenyl)prop-2-enamido]benzoic acid], the “% of control remaining” value is 87.2196%. For `Cc1ccsc1C=C(C#N)C(=O)NC1CCCCC1C` (stereo not shown) [8-G07, 2-cyano-N-(2-methylcyclohexyl)-3-(3-methylthiophen-2-yl)prop-2-enamide], the “% of control remaining” value turned out to be 56.0843%. Consider `C=CC(=O)NCc1ccnc(N2CCSCC2)c1` [1-I14, N-{[2-(thiomorpholin-4-yl)pyridin-4-yl]methyl}prop-2-enamide], for which the “% of control remaining” value is listed as 94.0209%. In the case of `C=CC(=O)NC(C)(Cn1cccn1)C(N)=O` (stereo not shown) [1-A20, N-{1-carbamoyl-1-[(1H-pyrazol-1-yl)methyl]ethyl}prop-2-enamide], the “% of control remaining” value came to 86.6966%. Turning to `N#CC(=Cc1ccc(-c2ccccc2F)o1)C(=O)Nc1nccs1` [9-A08, 2-cyano-3-[5-(2-fluorophenyl)furan-2-yl]-N-(1,3-thiazol-2-yl)prop-2-enamide], the “% of control remaining” value was 85.0442%.

Turning to `O=C(CCl)Nc1nc2c(s1)CCCC2` [5-G15, 2-chloro-N-(4,5,6,7-tetrahydro-1,3-benzothiazol-2-yl)acetamide], the “% of control remaining” value amounted to 95.156%. For `N#CC(=Cc1ccc2[nH]c(=O)[nH]c2c1)C(=O)NC1CCCC1` [9-E03, 2-cyano-N-cyclopentyl-3-(2-oxo-2,3-dihydro-1H-1,3-benzodiazol-5-yl)prop-2-enamide] the value was 99.3202%. As for `N#CC(=Cc1ccc(O)c([N+](=O)[O-])c1)C(=O)NCc1ccccc1` [8-O05, N-benzyl-2-cyano-3-(4-hydroxy-3-nitrophenyl)prop-2-enamide], the “% of control remaining” value was 79.1978%. Regarding `C=CC(=O)NCc1cccc(-n2cccn2)n1` [1-M14, N-{[6-(1H-pyrazol-1-yl)pyridin-2-yl]methyl}prop-2-enamide], the “% of control remaining” value is 88.3408%. Regarding `C=CC(=O)Nc1cccc(C(=O)C(C)(C)C)c1` [2-I18, N-[3-(2,2-dimethylpropanoyl)phenyl]prop-2-enamide], the “% of control remaining” value stood at 90.8135%.

Turning to `Cc1ccsc1CN(C(=O)CCl)C(C)C` [7-P03, 2-chloro-N-[(3-methylthiophen-2-yl)methyl]-N-(propan-2-yl)acetamide], the “% of control remaining” value was found to be 97.0097%.

Regarding `COc1ccc(NC(=O)C(C#N)=Cc2ccco2)cc1` [9-F19, 2-cyano-3-(furan-2-yl)-N-(4-methoxyphenyl)prop-2-enamide], the “% of control remaining” value was determined as 83.6846%.

In the case of `O=C(CCl)NC(c1ccc(F)c(C(F)(F)F)c1)C1CC1` (stereo not shown) [7-B22, 2-chloro-N-{cyclopropyl[4-fluoro-3-(trifluoromethyl)phenyl]methyl}acetamide], the “% of control remaining” value was determined as 84.7183%.
